Test results reported in PubChem BioAssay AID504332 (National Center for Advancing Translational Sciences (NCATS), 2011).
“And” between values parts separate entries of the source, which are not always exact repeats. Identical values can stand only once. Among all 350,000 compounds or so, about 31,000 (8.9%) were called active. Inconclusive results, whose numbers are uncertain, are shown with a selection of clear calls. Calls follow the shape of the dose curve; as a rule, active = well fitted inhibition curve with a large enough effect; inconclusive = small, poorly fitted or top-dose-only effect; inactive = no such curve, though single readings can be large or run the other way. Potencies beside an inconclusive call are fits to weak or partial responses and may not hold up.

molecular target: Histone-lysine N-methyltransferase EHMT2 (Homo sapiens) (UniProt Q96KQ7); experiment: qHTS Assay for Inhibitors of Histone Lysine Methyltransferase G9a; conditions: G9a H3K9 monomethylation, AlphaScreen, 2 h; activity, negative = inhibition: at 59 µM (top of the series) unless noted; also: nearly all actives have a fitted effect of over 75% in size
UniProt Q96KQ7, sequence (Q96KQ7 whole entry, looked up): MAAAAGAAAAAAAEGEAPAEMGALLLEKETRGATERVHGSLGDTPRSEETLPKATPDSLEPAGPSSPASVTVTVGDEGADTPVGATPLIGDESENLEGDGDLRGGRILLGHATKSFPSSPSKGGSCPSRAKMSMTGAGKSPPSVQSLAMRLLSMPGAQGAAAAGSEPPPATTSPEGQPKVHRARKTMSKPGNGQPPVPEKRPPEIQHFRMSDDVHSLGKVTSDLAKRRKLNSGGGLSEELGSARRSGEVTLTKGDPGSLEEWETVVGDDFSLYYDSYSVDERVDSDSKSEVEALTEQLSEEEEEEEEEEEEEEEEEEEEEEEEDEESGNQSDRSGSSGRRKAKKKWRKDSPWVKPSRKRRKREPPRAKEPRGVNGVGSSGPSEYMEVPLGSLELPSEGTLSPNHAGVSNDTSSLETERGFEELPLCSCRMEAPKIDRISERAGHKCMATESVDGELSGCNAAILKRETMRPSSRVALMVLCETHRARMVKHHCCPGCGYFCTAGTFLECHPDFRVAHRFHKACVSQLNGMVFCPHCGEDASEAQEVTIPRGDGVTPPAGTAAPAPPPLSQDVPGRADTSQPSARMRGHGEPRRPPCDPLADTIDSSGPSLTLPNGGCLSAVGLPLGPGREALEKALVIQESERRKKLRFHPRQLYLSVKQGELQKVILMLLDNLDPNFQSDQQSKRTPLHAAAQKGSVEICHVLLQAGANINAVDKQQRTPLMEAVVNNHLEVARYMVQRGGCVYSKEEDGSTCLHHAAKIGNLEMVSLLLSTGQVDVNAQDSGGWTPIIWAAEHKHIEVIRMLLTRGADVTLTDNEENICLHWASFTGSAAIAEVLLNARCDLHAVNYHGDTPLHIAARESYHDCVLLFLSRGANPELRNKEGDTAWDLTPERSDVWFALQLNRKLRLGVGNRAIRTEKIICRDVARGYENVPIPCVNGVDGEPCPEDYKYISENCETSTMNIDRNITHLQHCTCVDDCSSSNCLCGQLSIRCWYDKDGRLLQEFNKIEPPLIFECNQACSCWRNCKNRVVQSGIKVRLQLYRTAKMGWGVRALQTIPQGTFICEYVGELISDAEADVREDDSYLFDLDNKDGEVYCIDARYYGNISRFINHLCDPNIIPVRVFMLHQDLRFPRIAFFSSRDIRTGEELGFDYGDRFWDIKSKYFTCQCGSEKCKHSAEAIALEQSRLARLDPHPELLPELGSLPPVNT
In short: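 G9a (20 nM) preincubated 15 min RT with compounds, then 500 nM biotinylated H3K9 peptide and 20 uM SAM added; 2 h RT reaction. Monomethyl-H3K9 product detected by AlphaScreen with anti-H3K9me1 antibody, streptavidin donor and anti-rabbit IgG acceptor beads.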
% is scaled to controls: 0 for no effect and ±100 for the full control effect; potency is read from the fitted curve at half-maximal effect; tags tell the direction and shape of the fitted curve.

Structure (SMILES) | Potency | activity, negative = inhibition
CCCN1CCN(C(=S)Nc2ccc(S(N)(=O)=O)cc2)CC1 | inconclusive: 50.1 µM [inhibitor, partial curve, poor fit] | 
O=C(CN(c1cccc(C(F)(F)F)c1)S(=O)(=O)c1ccc(Cl)c([N+](=O)[O-])c1)NCc1ccccc1 | inconclusive: 39.8 µM [inhibitor, single point] | 
COc1cccc(-c2nc(NCc3ccccc3)c3ccccc3n2)c1O | inactive | 
O=S(=O)(c1ccc(C2CCCCC2)cc1)N1CCOCC1 | inactive | 
Cc1ccc(Cn2nc(C)c(NC(=O)c3cc(-c4ccc5c(c4)OCO5)on3)c2C)cc1 | inconclusive: 79.4 µM [inhibitor, partial curve, poor fit] | 
Oc1cc2c(cc1O)CN(C(=S)NCCc1ccc(Cl)cc1)CCC2 | active: 3.55 µM and active: 2 µM and active: 4.74 µM | 
CCCN(CC(=O)Nc1ccccc1C)C(=O)COc1c(Cl)cccc1Cl | inconclusive: 56.2 µM [inhibitor, partial curve, poor fit] | 
CC(C)N(Cc1nc(-c2ccc(Cl)cc2)no1)Cc1nccn1C | inconclusive: 50.1 µM [inhibitor, partial curve] | 
O=C(Cn1ncc2c(=O)oc3ccccc3c21)N1CCN(C(=O)c2ccco2)CC1 | inconclusive: 44.7 µM [inhibitor, partial curve, poor fit] | 
COc1ccc(C2/C(=C(\O)c3ccc4c(c3)OCCO4)C(=O)C(=O)N2Cc2ccco2)c(OC)c1 (centres undefined) | inconclusive: 39.8 µM [inhibitor, single point] | 
COc1ccc(C(=O)CSc2nccn2C)cc1 | active: 50.1 µM | 
Cc1cccc2cc(C#N)c(SCC(=O)NCC3CCCO3)nc12 (centres undefined) | inconclusive: 17.8 µM [inhibitor, single point] | 
Nc1c(C(=O)N2CCCCC2)sc(=S)n1-c1ccccc1 | inconclusive: 1 µM [inhibitor, partial curve, poor fit] | 
CCOc1ccccc1N(CC)C(=O)Nc1cn(C)c(=O)c2ccccc12 | inactive | 
COC(=O)C1C(O)C(C)C(O)C(C)(O)/C=C\C=C(/C)C(=O)Nc2c(C)c(OC(C)=O)c3c(c2O)C(=O)C(C)=C2OCOC(=C23)/C(C)=C/C(C)(O)C(O)C(C)C1O (centres undefined) | inconclusive: 50.1 µM [inhibitor, partial curve, poor fit] | 
CC(=O)N1CCC(N(C(=O)Nc2ccc(C)c(F)c2)C(C)C)CC1 | inactive | 
COc1ccc(N(Cc2cc3ccccc3[nH]c2=O)S(=O)(=O)c2ccccc2)cc1 | inconclusive: 50.1 µM [inhibitor, partial curve] | 
CSc1nnc(C2CCCN2)n1C (centres undefined) | active: 2.51 µM | 
CCc1ccc(NC(=O)CC2C(=O)N(c3cccc(OC)c3)C(=O)N2Cc2ccco2)cc1 (centres undefined) | inconclusive: 7.08 µM [inhibitor, full curve] | 
CC(OC(=O)c1ccc(NS(=O)(=O)c2cccs2)cc1)C(=O)N(C)C1CCCCC1 (centres undefined) | inconclusive: 89.1 µM [inhibitor, single point] | 
COc1cc(/C=N/NC(N)=S)ccc1OCC(=O)N1CCOCC1 | inconclusive: 28.2 µM [inhibitor, single point] | 
CCCCN1C(=O)C(O)=C(C(C)=O)C1c1ccccc1[N+](=O)[O-] (centres undefined) |  | inconclusive: -55.2% [inhibitor]
CCOc1ccccc1NC(=O)Nc1nnc(N(C)Cc2ccccc2)s1 | inconclusive: 25.1 µM [inhibitor, partial curve, poor fit] | 

Structure (SMILES) | Potency | activity, negative = inhibition
COc1ccc(NC(=O)c2ccccc2Sc2ccc(NC(C)=O)nc2)cc1 | active: 20 µM | 
Cc1ccc(NC(=O)c2oc3ccccc3c2NC(=O)Cc2cccs2)cc1 | inconclusive: 39.8 µM [inhibitor, single point] | 
COc1cc(Cl)ccc1OCc1cc(C(=O)N(C)Cc2nnc(C)o2)no1 | inconclusive: 10 µM [inhibitor, partial curve] | 
O=C(NCc1ccccc1Cl)C(=O)c1cn(CC(=O)N2CCOCC2)c2ccccc12 | inactive | 
Cc1ccccc1NC(=O)c1c(NC(=O)C(C)Oc2cccc(Cl)c2)sc2c1CCCC2 (centres undefined) | inconclusive: 2.51 µM [inhibitor, full curve, poor fit] | 
Cc1ccc(N/N=C2\CS(=O)(=O)N(C)c3ccsc32)cc1 | active: 44.7 µM | 
CN1CCN(C(=O)C2CCN(S(=O)(=O)c3ccc(F)cc3)CC2)CC1 | inactive | 
Cc1cccc(Nc2nc(N)c([N+](=O)[O-])c(NCc3ccco3)n2)c1 | inconclusive: 79.4 µM [inhibitor, partial curve, poor fit] | 
CCOC(=O)c1c(C)c(/C=N/Nc2ccccc2)n(C)c1C | inconclusive: 3.55 µM [inhibitor, single point] | 
O=C(c1nc(-c2ccc(Cl)cc2)n2c1CCCCC2)N1CCN(c2ccccc2F)CC1 | inconclusive: 14.1 µM [inhibitor, partial curve] | 
COc1ccccc1NC(=O)N(Cc1ccco1)Cc1cc2cc(C)cc(C)c2[nH]c1=O | active: 44.7 µM | 
COc1cc(/C=N/N2C(=O)CSC2=S)ccc1O |  | inactive: -15.4% [at 12.7 µM]
C/C(CC(=O)Nc1ccc2c(c1)OCCO2)=N\NC(=O)COc1ccccc1 | inactive | 
CC1(C2CC2)NC(=O)N(CC(=O)Nc2ccccc2C#N)C1=O (centres undefined) | inconclusive: 89.1 µM [inhibitor, partial curve, poor fit] | 
CC(Oc1ccccc1)C(=O)OCC(=O)Nc1sccc1C(N)=O (centres undefined) |  | inactive: 12.7% [at 12.7 µM]
O=C(Nc1ccc2c(c1)CN(Cc1ccc(CO)o1)CC2)c1ccc(C(F)(F)F)cc1 | inconclusive: 8.91 µM [inhibitor, full curve] | 
Cc1ccc(CCNC(=O)CS(=O)Cc2nc(-c3cccs3)oc2C)cc1 (centres undefined) |  | inconclusive: -70.9% [inhibitor]
COc1cccc(N2C(=O)CC(NNC(=O)c3cccs3)C2=O)c1 (centres undefined) | inconclusive: 39.8 µM [inhibitor, single point] | 
Cn1nnnc1SCC(=O)N1CCN(c2ccc(Cl)cc2)CC1 |  | inconclusive: -54.1% [inhibitor] [at 12.7 µM]
O=C1/C(=C\c2cccs2)CCC/C1=C/c1cccs1 | inconclusive: 2.24 µM [inhibitor, partial curve, poor fit] | 
CCOc1ccc(NC(=O)CN(C)C(=O)CCNC(=O)c2ccccc2Cl)cc1OCC | inconclusive: 79.4 µM [inhibitor, single point] | 
COc1ccc(N(Cc2cccs2)C(=O)c2ccccc2C)cc1 | inactive | 
CC(=O)c1cccc(NC2c3ncccc3C(=O)N2Cc2ccco2)c1 (centres undefined) | active: 50.1 µM | 

Structure (SMILES) | Potency | activity, negative = inhibition
O=S(=O)(Nc1ccc(-c2csc(-c3ccccc3)n2)cc1)c1ccc(F)cc1 |  | inconclusive: -53.2% [inhibitor]
CCN(CC)c1ccc(N=Cc2cc(Br)ccc2O)cc1 | active: 14.1 µM | 
Cc1ccc(CS(=O)(=O)c2cn(CC(=O)N(C)c3ccccc3)c3ccccc23)cc1 | inactive | 
CCOc1cccc(/C(O)=C2/C(=O)C(=O)N(Cc3cccnc3)C2c2ccco2)c1 (centres undefined) | inconclusive: 89.1 µM [inhibitor, single point] | 
Cc1ccc(N=Cc2cccc(O)c2O)c(C)c1 | inconclusive: 31.6 µM [inhibitor, single point] | 
CC(=O)c1ccc(N2C(=O)N(Cc3cccc(C(F)(F)F)c3)c3ccccc3S2(=O)=O)cc1 | inactive | 
CC1CCCC/C1=N\Nc1ccc(S(N)(=O)=O)cc1[N+](=O)[O-] (centres undefined) | inactive | 
COc1ccc(CNC(=S)Nc2ccc3nc(N4CCN(C)CC4)cc(C)c3c2)cc1 | active: 44.7 µM | 
CC(=O)Nc1ccc(NC(=O)CCCc2nc(-c3ccc(C(C)(C)C)cc3)no2)cc1 | inactive | 
Cc1c(-c2ccccc2)[n+](=O)c2c(n1[O-])CCCC2 | inactive | 
Cc1ccc(O)c(/C=N/NC(=O)C2=NNC(c3ccccc3)(c3ccccc3)C2)c1 | inconclusive: 35.5 µM [inhibitor, single point] | 
O=C(O)c1cccc(S(=O)(=O)Nc2cccc3ccccc23)c1 | active: 39.8 µM | 
CCCCNC(=O)CCC(=O)NNc1nc2ccccc2c2nc(-c3ccccc3)nn12 | inactive | 
CCOc1ccccc1NC(=O)CSc1nnc(-c2cccnc2)o1 |  | inactive: 8.76% [at 0.501 µM]
Cc1cc(C(=O)CSc2nnc(-c3ccco3)o2)c(C)n1-c1ccc2c(c1)OCCO2 | inactive | 
Cc1ccc(NC2CCCN(C(=O)CCN3CCOCC3)C2)cc1C (centres undefined) | inconclusive: 28.2 µM [inhibitor, partial curve] | 
Cc1ccccc1NC(=S)N(CCN1CCCCC1)Cc1ccco1 | inconclusive: 10 µM [inhibitor, partial curve, poor fit] | 
CCN1CCN(CCCNC(=O)c2ccc(NC(=O)C3=CSCCO3)cc2)CC1 | inconclusive: 89.1 µM [inhibitor, single point] | 
CC(=O)Nc1cccc(C(=O)OCC(=O)NNC(=O)c2ccc([N+](=O)[O-])cc2)c1 | inconclusive: 79.4 µM [inhibitor, partial curve, poor fit] | 
CCOC(=O)C1CCCN(CCc2ccccc2)C1 (centres undefined) | active: 39.8 µM | 
C=CCOc1cccc(C2/C(=C(/O)c3ccc(C)cc3)C(=O)C(=O)N2CCN2CCOCC2)c1 (centres undefined) | inconclusive: 31.6 µM [inhibitor, partial curve, poor fit] | 
C=CCn1c(CCc2cc(C(C)(C)C)c(O)c(C(C)(C)C)c2)n[nH]c1=S | active: 2 µM | 
CCSc1c(-c2ccccc2)nc2c(C)cccc2c1C(=O)O | inconclusive: 89.1 µM [inhibitor, single point] | 
